Test results published in the supplement of paper PMC6206098.
± gives the uncertainty stated by the source. The sequences are guide strands of siRNAs; only the seed at positions 2 to 7 varies.

How the values were obtained:
H460 = experiment: cell viability relative to lipid-only control; higher = less toxic; conditions: concentration: 10 nM; 96 h; Homo sapiens
M565 = experiment: as above; conditions: concentration: 10 nM; 96 h; Mus musculus
HeyA8 = experiment: as above; conditions: concentration: 10 nM; 96 h; Homo sapiens
3LL = experiment: cell viability relative to siNT1 control; HeyA8 human ovarian and H460 human lung cancer; M565 mouse liver and 3LL mouse lung cancer; siNT1 is a non-toxic control siRNA; higher = less toxic; conditions: concentration: 10 nM; 96 h; Mus musculus
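Wherever cell viability relative to lipid-only control is given: reverse lipid transfection in 384-well plates, in triplicate, of duplexes on a non-toxic 19mer backbone with passenger strand 2′-O-methylated at positions 1 and 2, luminescence viability read-out.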
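Wherever cell viability relative to siNT1 control is given: Luminescence-based viability of cells reverse transfected in 384-well plates with lipid-complexed siRNAs built on a non-toxic 19mer backbone whose passenger strand carries 2′-O-methyl groups at positions 1 and 2, triplicates.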

Row | Sequence | cell viability (H460) [%] | cell viability (M565) [%] | cell viability (HeyA8) [%] | cell viability (3LL) [%]
1 | UACCCUUACAUGUAAACCAAA | 66.2 ± 7.3 | 79.4 ± 8 | 63.5 ± 4.7 | 90.9 ± 3.5
2 | UGCCGAUACAUGUAAACCAAA | 87 ± 4.2 | 33.2 ± 3.8 | 46.2 ± 4.6 | 78.7 ± 11
3 | UCCAUAAACAUGUAAACCAAA | 53.7 ± 9.6 | 71.8 ± 8.5 | 92.4 ± 5 | 89.3 ± 19
4 | UCUCGGAACAUGUAAACCAAA | 53.1 ± 1.3 | 66.7 ± 7.2 | 85.1 ± 7.9 | 99.2 ± 24
5 | UCUCCUUACAUGUAAACCAAA | 62.2 ± 12 | 53 ± 8.3 | 75.1 ± 4.7 | 91.2 ± 14
6 | UGACUCUACAUGUAAACCAAA | 41.2 ± 3.9 | 11.3 ± 1.3 | 37.4 ± 4.5 | 9.83 ± 1.7
7 | UGGAACCACAUGUAAACCAAA | 44.2 ± 6.1 | 9.49 ± 2.4 | 32 ± 1.6 | 50.4 ± 4.3
8 | UUGUACGACAUGUAAACCAAA | 70.6 ± 8.5 | 101 ± 13 | 89.1 ± 3 | 84.6 ± 3.7
9 | UCCCUGAACAUGUAAACCAAA | 50.65 ± 0.32 | 106 ± 23 | 77.5 ± 5.7 | 105 ± 18
10 | UAUGACGACAUGUAAACCAAA | 67.9 ± 4.6 | 88.4 ± 10 | 108 ± 12 | 118 ± 15
11 | UGCGUUCACAUGUAAACCAAA | 17.1 ± 1.4 | 44.5 ± 1.2 | 15.5 ± 0.17 | 45.5 ± 3.4
12 | UCUCCCAACAUGUAAACCAAA | 65.3 ± 3.4 | 57.8 ± 11 | 89 ± 9.2 | 94.5 ± 11
13 | UGGUGUGACAUGUAAACCAAA | 22 ± 2.4 | 38.4 ± 7.1 | 29.3 ± 4.3 | 71 ± 5.7
14 | UGAUUUCACAUGUAAACCAAA | 43.8 ± 3.8 | 6.34 ± 3 | 28.2 ± 1.3 | 12.2 ± 0.51
15 | UCGCCCCACAUGUAAACCAAA | 60.8 ± 4.4 | 38 ± 4 | 71.2 ± 1.7 | 65.7 ± 18
16 | UUGUCUUACAUGUAAACCAAA | 67.8 ± 12 | 103 ± 33 | 61.8 ± 2.8 | 85.6 ± 2.8
17 | UGUUUGAACAUGUAAACCAAA | 60.6 ± 7 | 95 ± 9.4 | 64 ± 9.9 | 78.5 ± 5.8
18 | UGGAACGACAUGUAAACCAAA | 83.8 ± 13 | 43.7 ± 8 | 75.7 ± 5.6 | 99.7 ± 14
19 | UACUGUGACAUGUAAACCAAA | 89 ± 9.2 | 42.2 ± 8.8 | 78.4 ± 9.3 | 84.2 ± 9.4
20 | UGUGGUAACAUGUAAACCAAA | 61 ± 7.5 | 54.7 ± 5.1 | 62.6 ± 12 | 51.2 ± 16

Row | Sequence | cell viability (H460) [%] | cell viability (M565) [%] | cell viability (HeyA8) [%] | cell viability (3LL) [%]
21 | UCGUUUCACAUGUAAACCAAA | 72 ± 5.7 | 88.1 ± 11 | 41.5 ± 5.8 | 85.6 ± 14
22 | UUAUCUAACAUGUAAACCAAA | 72.9 ± 9.3 | 82.7 ± 15 | 98.2 ± 4.3 | 95.5 ± 5.2
23 | UUUCCUCACAUGUAAACCAAA | 35.2 ± 1.8 | 34.5 ± 7.3 | 56.1 ± 5.3 | 46.4 ± 5.2
24 | UCUUGUGACAUGUAAACCAAA | 63.4 ± 8.5 | 72.7 ± 18 | 82.4 ± 6.7 | 91.1 ± 16
25 | UCAGAGUACAUGUAAACCAAA | 54.7 ± 9.5 | 29.4 ± 7.5 | 55 ± 7.3 | 92 ± 10
26 | UUGUUACACAUGUAAACCAAA | 41.5 ± 11 | 84.2 ± 4.5 | 29.5 ± 2.7 | 76.7 ± 18
27 | UAUAAACACAUGUAAACCAAA | 66.3 ± 4.1 | 88.5 ± 14 | 93.7 ± 6.1 | 106 ± 6.3
28 | UGUCCGGACAUGUAAACCAAA | 24 ± 2.7 | 58.9 ± 10 | 46.7 ± 2.1 | 63.3 ± 11
29 | UCAGUCCACAUGUAAACCAAA | 40.7 ± 8.7 | 26.5 ± 3.4 | 18.2 ± 0.95 | 47.7 ± 9.9
30 | UCAGUAUACAUGUAAACCAAA | 48.7 ± 2.3 | 69.3 ± 8.1 | 78.4 ± 3.3 | 95.1 ± 13
31 | UGCGCGUACAUGUAAACCAAA | 62.2 ± 2.3 | 21.8 ± 12 | 49.9 ± 4.8 | 94.5 ± 9.6
32 | UUCUGAUACAUGUAAACCAAA | 71.5 ± 4.7 | 55.7 ± 4.5 | 63.5 ± 11 | 35.1 ± 6
33 | UUGGCGGACAUGUAAACCAAA | 14.6 ± 1.9 | 26.3 ± 11 | 5.05 ± 0.42 | 24.5 ± 1.1
34 | UCAGGUAACAUGUAAACCAAA | 60.4 ± 3.6 | 71.6 ± 4.3 | 83 ± 3.6 | 103 ± 17
35 | UGGAGGUACAUGUAAACCAAA | 4.65 ± 0.41 | 2.86 ± 1.2 | 2.1 ± 0.13 | 7.25 ± 2.5
36 | UCCGGACACAUGUAAACCAAA | 35.1 ± 3.5 | 20.3 ± 3.4 | 38.7 ± 3.9 | 46.7 ± 14
37 | UUGGGCGACAUGUAAACCAAA | 30 ± 3.4 | 47.7 ± 3.4 | 14.6 ± 2.8 | 23.4 ± 3.7
38 | UGAAGACACAUGUAAACCAAA | 41.7 ± 0.67 | 2.68 ± 0.26 | 23.7 ± 1.9 | 30 ± 2.6
39 | UGUGGAUACAUGUAAACCAAA | 46.4 ± 12 | 16.2 ± 3.9 | 12.1 ± 1.5 | 70 ± 6.7
40 | UUCCUGUACAUGUAAACCAAA | 24.2 ± 5 | 58.5 ± 6 | 36.8 ± 4 | 9.51 ± 2.2

Row | Sequence | cell viability (H460) [%] | cell viability (M565) [%] | cell viability (HeyA8) [%] | cell viability (3LL) [%]
41 | UACAGAUACAUGUAAACCAAA | 39.1 ± 1.8 | 10.9 ± 0.87 | 4.95 ± 0.68 | 36.2 ± 5
42 | UAGCGUUACAUGUAAACCAAA | 65.5 ± 7.5 | 74.8 ± 8.6 | 77.2 ± 5.7 | 96.5 ± 13
43 | UAAUGGAACAUGUAAACCAAA | 76.6 ± 17 | 35.3 ± 16 | 66.9 ± 5 | 91.1 ± 9.7
44 | UAUCUGUACAUGUAAACCAAA | 71.7 ± 12 | 93.7 ± 24 | 82 ± 5.8 | 95.7 ± 6.9
45 | UAGGAGCACAUGUAAACCAAA | 13.3 ± 0.35 | 7.53 ± 0.46 | 11.7 ± 1.2 | 9.09 ± 1
46 | UCAACCCACAUGUAAACCAAA | 44.7 ± 5.4 | 49.4 ± 4.9 | 58.9 ± 3.3 | 49.6 ± 13
47 | UGGCACCACAUGUAAACCAAA | 15.3 ± 4.6 | 29.8 ± 10 | 9.55 ± 1.2 | 20.7 ± 2.9
48 | UUCUGUGACAUGUAAACCAAA | 69.8 ± 11 | 48.9 ± 13 | 80.9 ± 6.4 | 49.2 ± 11
49 | UCAAAUCACAUGUAAACCAAA | 49.4 ± 4.9 | 41.8 ± 6.7 | 66.4 ± 3.5 | 72 ± 11
50 | UGUGCCCACAUGUAAACCAAA | 57.1 ± 6.5 | 18.6 ± 3.6 | 69.3 ± 9 | 26.5 ± 11
51 | UGAUGGAACAUGUAAACCAAA | 35.2 ± 5.5 | 27.2 ± 2.2 | 24.9 ± 1.4 | 72.6 ± 13
52 | UAAGAAUACAUGUAAACCAAA | 102 ± 5.8 | 65 ± 4.8 | 88.8 ± 5.5 | 84.7 ± 8.2
53 | UUUAUGAACAUGUAAACCAAA | 95.2 ± 4.2 | 98.7 ± 15 | 93.5 ± 8.2 | 99.8 ± 12
54 | UGCGCUGACAUGUAAACCAAA | 64.9 ± 4 | 56.9 ± 9.2 | 52.6 ± 8.4 | 81.7 ± 3.1
55 | UAAACUAACAUGUAAACCAAA | 85.8 ± 14 | 102 ± 8 | 101 ± 7.8 | 112 ± 16
56 | UUGACUUACAUGUAAACCAAA | 67.9 ± 11 | 83.8 ± 17 | 96.3 ± 6.9 | 94.1 ± 3.6
57 | UAUAAAAACAUGUAAACCAAA | 70.3 ± 10 | 86.6 ± 9 | 103 ± 14 | 103 ± 20
58 | UUAUGCGACAUGUAAACCAAA | 58.2 ± 5.5 | 67.9 ± 15 | 65.9 ± 3.4 | 64.1 ± 6
59 | UUUGUAAACAUGUAAACCAAA | 81.3 ± 4.9 | 89.7 ± 3.6 | 98.9 ± 6.1 | 98.6 ± 15
60 | UUGCGUUACAUGUAAACCAAA | 82.5 ± 4.3 | 72.8 ± 16 | 95.3 ± 8.6 | 31.2 ± 3.3
